Reference: article PMC12722591
No constants are given. Whether binding was seen depends on the method and setting. Binding seen in cells or lysates may run through a third protein. Some entries that bind do so weakly or less than the wild type. For some of these results: Where a sequence is shown, tags or fusion partners need not be part of it. One block for each molecule: values may come before it.

The chains behind the UniProt entries cited, without tags or fusion partners.
UniProt P48436: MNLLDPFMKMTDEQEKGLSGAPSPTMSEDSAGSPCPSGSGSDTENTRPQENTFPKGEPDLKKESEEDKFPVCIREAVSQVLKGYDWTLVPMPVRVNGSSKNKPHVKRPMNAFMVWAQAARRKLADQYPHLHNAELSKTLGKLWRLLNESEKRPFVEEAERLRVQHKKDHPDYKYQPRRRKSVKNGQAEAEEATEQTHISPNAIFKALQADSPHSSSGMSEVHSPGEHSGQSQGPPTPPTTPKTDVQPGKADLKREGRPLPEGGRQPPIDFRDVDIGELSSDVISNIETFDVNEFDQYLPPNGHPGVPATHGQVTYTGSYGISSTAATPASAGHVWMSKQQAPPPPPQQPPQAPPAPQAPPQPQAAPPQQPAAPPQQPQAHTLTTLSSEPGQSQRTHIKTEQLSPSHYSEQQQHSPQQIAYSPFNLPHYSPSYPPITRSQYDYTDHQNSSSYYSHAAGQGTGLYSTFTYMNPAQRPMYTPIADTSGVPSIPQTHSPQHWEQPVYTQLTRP
UniProt Q969H0: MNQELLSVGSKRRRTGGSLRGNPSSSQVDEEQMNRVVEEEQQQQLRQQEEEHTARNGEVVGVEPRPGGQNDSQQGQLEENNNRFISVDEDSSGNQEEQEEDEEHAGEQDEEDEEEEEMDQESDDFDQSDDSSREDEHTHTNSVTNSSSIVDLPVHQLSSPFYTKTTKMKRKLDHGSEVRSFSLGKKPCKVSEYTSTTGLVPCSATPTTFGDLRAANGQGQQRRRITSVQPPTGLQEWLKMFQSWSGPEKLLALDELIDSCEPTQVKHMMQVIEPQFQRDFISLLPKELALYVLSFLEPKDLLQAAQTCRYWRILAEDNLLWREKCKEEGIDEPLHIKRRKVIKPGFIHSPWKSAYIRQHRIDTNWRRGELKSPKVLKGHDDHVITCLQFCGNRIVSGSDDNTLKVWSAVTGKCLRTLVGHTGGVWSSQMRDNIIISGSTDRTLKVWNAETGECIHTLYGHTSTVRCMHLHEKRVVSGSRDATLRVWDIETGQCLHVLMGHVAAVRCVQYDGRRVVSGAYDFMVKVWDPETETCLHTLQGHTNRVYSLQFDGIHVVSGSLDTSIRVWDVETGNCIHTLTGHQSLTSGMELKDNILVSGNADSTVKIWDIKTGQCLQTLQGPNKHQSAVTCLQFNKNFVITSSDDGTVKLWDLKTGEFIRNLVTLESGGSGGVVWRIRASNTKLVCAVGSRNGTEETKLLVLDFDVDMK
UniProt Q14145: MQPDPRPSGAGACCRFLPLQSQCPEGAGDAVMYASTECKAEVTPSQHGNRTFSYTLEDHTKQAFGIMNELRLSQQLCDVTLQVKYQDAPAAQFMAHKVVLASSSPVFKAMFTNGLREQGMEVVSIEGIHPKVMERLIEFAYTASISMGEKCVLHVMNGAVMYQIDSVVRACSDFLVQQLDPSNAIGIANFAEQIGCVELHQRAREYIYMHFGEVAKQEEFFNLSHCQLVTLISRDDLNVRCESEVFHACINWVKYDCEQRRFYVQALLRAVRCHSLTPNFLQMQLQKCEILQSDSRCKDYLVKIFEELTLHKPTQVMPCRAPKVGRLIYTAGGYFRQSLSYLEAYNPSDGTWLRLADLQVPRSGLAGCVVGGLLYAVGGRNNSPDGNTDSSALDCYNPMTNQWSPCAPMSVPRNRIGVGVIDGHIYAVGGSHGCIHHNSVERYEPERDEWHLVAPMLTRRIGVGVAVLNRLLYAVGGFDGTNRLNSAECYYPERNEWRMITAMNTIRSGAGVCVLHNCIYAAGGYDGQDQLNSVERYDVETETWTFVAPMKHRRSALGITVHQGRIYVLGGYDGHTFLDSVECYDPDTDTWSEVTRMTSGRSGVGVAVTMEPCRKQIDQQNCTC
UniProt Q99873: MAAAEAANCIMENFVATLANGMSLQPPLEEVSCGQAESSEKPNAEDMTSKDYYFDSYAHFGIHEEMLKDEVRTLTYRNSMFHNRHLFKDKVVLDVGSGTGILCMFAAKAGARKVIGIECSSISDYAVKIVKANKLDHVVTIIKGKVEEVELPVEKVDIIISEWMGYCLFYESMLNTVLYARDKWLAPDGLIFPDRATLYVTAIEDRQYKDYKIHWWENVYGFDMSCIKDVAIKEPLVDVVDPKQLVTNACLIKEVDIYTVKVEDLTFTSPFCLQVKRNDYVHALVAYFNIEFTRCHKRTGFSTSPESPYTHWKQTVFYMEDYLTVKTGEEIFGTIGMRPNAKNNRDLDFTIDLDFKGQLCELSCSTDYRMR
UniProt O14744: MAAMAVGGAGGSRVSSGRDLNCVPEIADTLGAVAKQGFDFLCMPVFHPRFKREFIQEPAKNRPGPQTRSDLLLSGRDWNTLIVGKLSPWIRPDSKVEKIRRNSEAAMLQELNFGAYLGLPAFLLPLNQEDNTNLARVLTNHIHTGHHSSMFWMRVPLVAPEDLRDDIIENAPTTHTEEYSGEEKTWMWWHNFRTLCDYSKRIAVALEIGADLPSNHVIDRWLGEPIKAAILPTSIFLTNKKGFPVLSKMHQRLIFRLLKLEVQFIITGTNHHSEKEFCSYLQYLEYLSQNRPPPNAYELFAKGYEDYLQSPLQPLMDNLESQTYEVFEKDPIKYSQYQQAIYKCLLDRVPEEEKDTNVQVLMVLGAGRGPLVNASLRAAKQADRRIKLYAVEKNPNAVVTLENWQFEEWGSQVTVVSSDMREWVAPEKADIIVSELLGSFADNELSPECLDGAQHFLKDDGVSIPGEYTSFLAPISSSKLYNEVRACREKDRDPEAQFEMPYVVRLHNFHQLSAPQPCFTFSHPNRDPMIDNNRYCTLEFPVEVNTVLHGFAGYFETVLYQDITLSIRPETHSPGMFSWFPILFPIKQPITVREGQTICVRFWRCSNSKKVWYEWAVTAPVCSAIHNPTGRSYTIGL
UniProt Q96LA8: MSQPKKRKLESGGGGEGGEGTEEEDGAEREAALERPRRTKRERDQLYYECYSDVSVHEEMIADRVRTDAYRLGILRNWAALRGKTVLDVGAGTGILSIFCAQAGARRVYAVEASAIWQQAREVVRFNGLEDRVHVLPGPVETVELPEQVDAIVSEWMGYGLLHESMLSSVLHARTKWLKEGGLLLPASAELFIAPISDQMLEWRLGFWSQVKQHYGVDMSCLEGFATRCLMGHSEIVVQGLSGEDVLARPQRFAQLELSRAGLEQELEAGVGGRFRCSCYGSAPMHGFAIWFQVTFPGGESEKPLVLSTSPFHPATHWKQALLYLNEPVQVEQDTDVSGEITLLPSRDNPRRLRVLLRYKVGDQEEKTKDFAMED

Experiments:
[1] = molecular target: Flag-tagged SOX9 (SRY-box transcription factor 9) (UniProt P48436); experiment: co-IP; HEK293T co-transfected with Flag-SOX9 and HA-KEAP1 or HA-FBXW7, with or without His-PRMT7; harvested after 36 h, IP with the indicated antibodies, immunoblot
[2] = molecular target: Flag-tagged SOX9 (SRY-box transcription factor 9) (UniProt P48436); experiment: co-IP; HEK293T cells co-transfected with tagged PRMT and Flag-SOX9 constructs (36 h); lysates in IP Lysis Buffer, antibody overnight at 4 °C, Protein A/G beads 6 h, immunoblot
[3] = molecular target: T1, His-tagged PRMT7 (protein arginine methyltransferase 7) (UniProt Q9NVM4); experiment: co-IP; semi-endogenous; HEK293T transfected with His-PRMT7 or empty vector, lysate immunoprecipitated with anti-His antibody, immunoblot with anti-SOX9
T1 sequence: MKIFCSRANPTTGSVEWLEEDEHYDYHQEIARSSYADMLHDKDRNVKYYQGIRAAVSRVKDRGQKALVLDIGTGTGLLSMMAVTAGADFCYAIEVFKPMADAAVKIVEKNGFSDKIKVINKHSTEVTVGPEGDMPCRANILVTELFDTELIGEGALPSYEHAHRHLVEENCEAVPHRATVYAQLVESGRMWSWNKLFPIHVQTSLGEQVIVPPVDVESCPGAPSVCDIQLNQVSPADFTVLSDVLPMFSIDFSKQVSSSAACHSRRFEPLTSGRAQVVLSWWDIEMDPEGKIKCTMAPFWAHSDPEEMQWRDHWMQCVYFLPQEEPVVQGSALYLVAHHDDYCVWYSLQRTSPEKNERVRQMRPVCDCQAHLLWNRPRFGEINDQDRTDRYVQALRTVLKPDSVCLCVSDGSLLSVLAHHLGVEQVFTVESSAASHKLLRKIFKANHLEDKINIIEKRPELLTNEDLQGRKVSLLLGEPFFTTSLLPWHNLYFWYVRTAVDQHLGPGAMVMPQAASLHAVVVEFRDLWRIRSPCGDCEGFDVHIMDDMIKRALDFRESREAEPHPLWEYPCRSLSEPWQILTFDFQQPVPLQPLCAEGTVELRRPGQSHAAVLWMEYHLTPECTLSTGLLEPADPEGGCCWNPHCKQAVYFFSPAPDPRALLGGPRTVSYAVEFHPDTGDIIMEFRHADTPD

[4] = molecular target: Flag-tagged SOX9 (SRY-box transcription factor 9) (UniProt P48436); experiment: co-IP; HEK293T cells co-transfected with tagged PRMT and Flag-SOX9 constructs (36 h); lysates in IP Lysis Buffer, antibody overnight at 4 °C, Protein A/G beads 6 h, immunoblot; remark: listed apart in the source

Molecule: HA-FBXW7 (F-Box and WD repeat domain containing 7) (from UniProt Q969H0 1-707)
binding [1]: binds

Molecule: SOX9, endogenous in HEK293T cells (from UniProt P48436 1-509)
binding [3]: binds

B1: T7-PRMT7 (1–345 aa) (domain or fragment, UniProt Q9NVM4 1-345)
chain: MKIFCSRANPTTGSVEWLEEDEHYDYHQEIARSSYADMLHDKDRNVKYYQGIRAAVSRVKDRGQKALVLDIGTGTGLLSMMAVTAGADFCYAIEVFKPMADAAVKIVEKNGFSDKIKVINKHSTEVTVGPEGDMPCRANILVTELFDTELIGEGALPSYEHAHRHLVEENCEAVPHRATVYAQLVESGRMWSWNKLFPIHVQTSLGEQVIVPPVDVESCPGAPSVCDIQLNQVSPADFTVLSDVLPMFSIDFSKQVSSSAACHSRRFEPLTSGRAQVVLSWWDIEMDPEGKIKCTMAPFWAHSDPEEMQWRDHWMQCVYFLPQEEPVVQGSALYLVAHHDDYCVW
binding [4]: binds

Further lines, results first:

binding [1]: binds
Molecule: HA-KEAP1 (kelch like ECH associated protein 1) (from UniProt Q14145 1-624)

binding [2]: no binding
Molecule: His-tagged PRMT1 (from UniProt Q99873 1-371) (enzyme)

binding [2]: no binding
Molecule: His-tagged PRMT5 (from UniProt O14744 1-637) (enzyme)

binding [2]: no binding
Molecule: His-tagged PRMT6 (from UniProt Q96LA8 1-375) (enzyme)
